Here are results for 106 sequences from the supplement of paper PMC10126150.

Values marked as one replicate rest on one cluster of the flow cell; about a third of the high ones do not repeat.
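Also: ATP exposure 15 min at 22 °C before imaging.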

The subject of one series is ATP. Put plainly: switch fluorescence ratio, 500 uM ATP over buffer (Cy3 cluster intensity, sum of 5 cycles each) (fold (ratio)); higher = stronger signal-on switching upon ATP binding. Particulars: aptamer strand: ATP DNA aptamer (quencher-CACCTGGGGGAGTATTGCGGAGGAAGG + anchor), 100 nM annealed; ATP concentration: 500 uM; one replicate. The essentials: (§1)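 Values give the fluorescence ratio for each switch-domain sequence, averaged from per-cluster ratios of summed target-cycle to summed buffer-cycle Cy3 intensity. The Cy3-labelled switching-strand clusters sat on a modified Illumina MiSeq flow-cell, were annealed to 100 nM quencher-labelled ATP aptamer, and were imaged in selection buffer, then after 15 min with 500 uM ATP at 22 °C. Five cycles ran with NaOH stripping and re-annealing between them, and clusters outside 100-1000 RFU were excluded.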
As to “TCGTCGGCAGCGTCAGATGTGTATAAGAGACAGTTTTTTTTTTTTTTTTTTTTTTTTTTGGTC”, the switch fluorescence ratio was found to be 0.972.

The next series has as its system ATP. Put plainly: switch fluorescence ratio, 500 uM ATP over buffer (Cy3 cluster intensity, sum of 5 cycles each) (fold (ratio)); higher = stronger signal-on switching upon ATP binding; sequences stand for … in TCGTCGGCAGCGTCAGATGTGTATAAGAGACAGTTTTTTTTTTTTTTTTTTTTTTTTT…TC. The conditions noted are these: aptamer strand: ATP DNA aptamer (quencher-CACCTGGGGGAGTATTGCGGAGGAAGG + anchor), 100 nM annealed; ATP concentration: 500 uM; one replicate. In a few lines:
as §1
For the sequence TGCGTTATGG, the switch fluorescence ratio was found to be 0.992.

GTCAGTGGTC: the switch fluorescence ratio is 0.955.

Turning to TTTTCACTGT, the switch fluorescence ratio came out at 0.941.

GACTTAGAAG: the switch fluorescence ratio worked out at 1.07.

As for AGCTCGTAAG, the switch fluorescence ratio was determined as 0.982.

AAGAACCAGC: the switch fluorescence ratio was determined as 1.01.

In the case of CGCGAATGTT, the switch fluorescence ratio was 0.999.

As to TGTCTGAAAT, the switch fluorescence ratio came out at 1.04.

Turning to CGAATGTGAT, the switch fluorescence ratio amounted to 0.966.

As for CGTTGGCAGG, the switch fluorescence ratio was determined as 0.976.

On to ACGGCGTTTC, for which the switch fluorescence ratio stood at 1.01.

Regarding GCGCTTGCAG, the switch fluorescence ratio was determined as 1.02.

Turning to GGAAACTGAT, the switch fluorescence ratio amounted to 1.01.

On to AATGTGCATT, for which the switch fluorescence ratio turned out to be 1.01.

CCCGAGCTGG: the switch fluorescence ratio worked out at 0.968.

Turning to CTACGTTTGC, the switch fluorescence ratio is 2.6.

With ACCTGGATTT, the switch fluorescence ratio was found to be 0.993.

For TGTTCCTTTG, the switch fluorescence ratio was found to be 1.03.

Take TCAGGCTGG: the switch fluorescence ratio came to 0.966.

As for GAAATCAGAC, the switch fluorescence ratio was 1.

With TTTGTCGTGT, the switch fluorescence ratio came to 0.945.

In the case of CATATAACAT, the switch fluorescence ratio turned out to be 1.02.

Consider ATGTGCACA, for which the switch fluorescence ratio was determined as 1.03.

Turning to CTCTGGGGTT, the switch fluorescence ratio came out at 0.943.

Consider ACTCGCTCAC, for which the switch fluorescence ratio was found to be 3.57.

Turning to ACTTTCCCTG, the switch fluorescence ratio is 1.16.

As for TAATATATCT, the switch fluorescence ratio is 1.01.

GGCTCTCTT: the switch fluorescence ratio was 0.99.

For the sequence GGACTACTGG, the switch fluorescence ratio was found to be 1.05.

Regarding TCGATGGTTA, the switch fluorescence ratio amounted to 1.05.

For GTTAGTACTC, the switch fluorescence ratio amounted to 1.02.

Turning to AGTCGCCGAG, the switch fluorescence ratio turned out to be 0.956.

TCGAAGTTTC: the switch fluorescence ratio worked out at 1.11.

For AGGGGGGTGC, the switch fluorescence ratio is 1.03.

On to AGCGGTGGGG, for which the switch fluorescence ratio turned out to be 1.

In the case of CTGTTAAAGA, the switch fluorescence ratio is 1.03.

In the case of GCCCTTGTAA, the switch fluorescence ratio turned out to be 0.978.

As for GAGGACATAT, the switch fluorescence ratio turned out to be 1.02.

AAGCTAAGGA: the switch fluorescence ratio was found to be 0.998.

Turning to GAGGCTGGAG, the switch fluorescence ratio came to 0.962.

As for ATTCCCAGCG, the switch fluorescence ratio was 1.17.

For the sequence TTGCCAAGCG, the switch fluorescence ratio amounted to 0.991.

On to CCCGCTTAGG, for which the switch fluorescence ratio worked out at 1.12.

GGTACTCGCT: the switch fluorescence ratio was found to be 0.985.

Consider CGAACTCCCC, for which the switch fluorescence ratio amounted to 3.71.

Consider GGGACTTGTC, for which the switch fluorescence ratio is 0.996.

Take GCATATCGCG: the switch fluorescence ratio was found to be 0.981.

On to TACACGATCA, for which the switch fluorescence ratio came to 1.16.

Consider AACCTTAGGT, for which the switch fluorescence ratio is 1.02.

For the sequence TAGACCGGGG, the switch fluorescence ratio came out at 1.07.

Consider GCCGTTGGAC, for which the switch fluorescence ratio is 1.05.

For the sequence CAGGCGTGGG, the switch fluorescence ratio was 1.04.

Consider CCTCGCCCAT, for which the switch fluorescence ratio is 2.73.

With TCAGGGCGGA, the switch fluorescence ratio came to 0.971.

Turning to AAATAACTTG, the switch fluorescence ratio is 0.99.

As for ATGGTTTTCG, the switch fluorescence ratio was found to be 1.02.

Regarding GTTGTTTTGG, the switch fluorescence ratio worked out at 1.01.

Take GTCCCAGTTT: the switch fluorescence ratio was 0.993.

As to AAATCCTTGG, the switch fluorescence ratio worked out at 0.994.

As for GGGAGTGGAG, the switch fluorescence ratio came to 1.01.

Consider AATAAAATGT, for which the switch fluorescence ratio was found to be 0.968.

As for CGCTAAAAAA, the switch fluorescence ratio was 1.62.

On to GGAAAGAGAA, for which the switch fluorescence ratio was determined as 0.998.

In the case of ACAAATGACG, the switch fluorescence ratio was 0.992.

As to AGGCTAAATT, the switch fluorescence ratio is 0.96.

Take CGTGATATGC: the switch fluorescence ratio was determined as 1.24.

For GGGACGACGG, the switch fluorescence ratio was 1.04.

For CTAGTTAGT, the switch fluorescence ratio was 1.01.

Turning to CGCATCTT, the switch fluorescence ratio was 1.11.

In the case of TTGTGACTTA, the switch fluorescence ratio stood at 0.989.

On to GGAGTCCTTG, for which the switch fluorescence ratio was 0.934.

For the sequence GACAGAAGCG, the switch fluorescence ratio is 0.992.

Take CGAATCCAGC: the switch fluorescence ratio worked out at 0.978.

In the case of TTGACTACTA, the switch fluorescence ratio was found to be 1.11.

Take ACACAAGGCC: the switch fluorescence ratio was 0.997.

Take ACACTGGCAG: the switch fluorescence ratio came out at 0.944.

Consider TACTCTCGAG, for which the switch fluorescence ratio stood at 1.02.

In the case of TCAATGCGAG, the switch fluorescence ratio came out at 1.07.

For AATAAACCCC, the switch fluorescence ratio came to 1.14.

As to GCACAAGGGA, the switch fluorescence ratio was determined as 1.02.

For TAAGGTCAC, the switch fluorescence ratio stood at 1.

On to CCTAACACTT, for which the switch fluorescence ratio worked out at 1.02.

For TATGTATGCT, the switch fluorescence ratio worked out at 0.964.

As to ACTAAGTAGC, the switch fluorescence ratio came to 1.03.

For CTCCACAGGG, the switch fluorescence ratio was found to be 1.22.

GGAGGGATTT: the switch fluorescence ratio is 1.

Turning to ACTATTAATT, the switch fluorescence ratio is 1.1.

Turning to GAGGTGAATA, the switch fluorescence ratio was 1.55.

TAAGTAGATG: the switch fluorescence ratio is 1.01.

For AGTGACCGAT, the switch fluorescence ratio is 1.03.

As for CCTGTTTGGT, the switch fluorescence ratio was determined as 0.952.

On to GACGAAGTAG, for which the switch fluorescence ratio came out at 1.11.

Turning to ATACGGCAAG, the switch fluorescence ratio was found to be 1.06.

As to CGCATCCTAG, the switch fluorescence ratio was 1.07.

Take GATCTCTCCT: the switch fluorescence ratio is 1.05.

Take TTGTGACACA: the switch fluorescence ratio stood at 1.02.

Regarding ACCTACGCCT, the switch fluorescence ratio was found to be 1.25.

As to GCCTAATGTA, the switch fluorescence ratio worked out at 1.05.

As to CTTATTAGAG, the switch fluorescence ratio stood at 1.07.

For the sequence ACTAGGCTCA, the switch fluorescence ratio is 0.988.

For the sequence CGAGCTTCTG, the switch fluorescence ratio amounted to 0.979.

Consider GAGCTGAAAT, for which the switch fluorescence ratio is 0.997.

TGTAAGGCTT: the switch fluorescence ratio is 0.967.

For the sequence TATTATCCTG, the switch fluorescence ratio came out at 1.01.

For the sequence TGACATGTTG, the switch fluorescence ratio worked out at 0.976.
